Data reported in the RNAGym collection of RNA variant scans (doi:10.7554/elife.90254).
The source gives no read counts; variants with many changes may rest on few reads.

B1: OR4K15 (parent)
chain: GUUAACGGUCAUAGGCCAUGGAAACUAGGAGCACCAUUUCGCUGCCAGUGAAGAAAUGAACAAAGAAAAUCUGGGCCAGGCAGGCAUCAAAAGAAAUAGUCUUGCGCUCAACCAGAAAGUCUGUAAUCAUUUUAAGGGUA

Variants of: B1
Assay: self-cleavage, relative activity (ratio to wild type); higher = more cleavage; in vitro, sequencing; the parent is a self-cleaving ribozyme

| Variant | self-cleavage |
| --- | --- |
| A33C U38A U43G A90G A95G A96G | 1.95 |
| G31U U97C U102G | 0.47 |
| A36G A89U U103C G137A A140G | 1.62 |
| C34U A52G A54G | 1.38 |
| A33G U38C A63U | 1.26 |
| A33G A36G A64U A91U U102A A126G | 0.53 |
| A33U A110G A129G U131C | 0.05 |
| G31A A66G U70C | 0.35 |
| C34G A59G U120C | 0.77 |
| A33G A64G A82U | 0.04 |
| A36G A92G C107U | 0.02 |
| A33U A67G U108C A111U A126U | 0 |
| A33G A62G A118G | 0.58 |
| A33G U39C A55G A56G A92G A110U | 0.33 |
| A33U A64G A67G A90U A96G A135U | 1.44 |
| A33G G58U A90G | 0.25 |
| A33U A55G A66U U87G | 0.89 |
| A36G A69G U120C | 0.44 |
| A33G G50U G58U U122C U127C U131C | 0.34 |
| A33G G99C U100C | 0.13 |
| A33C U87A A111C U120G | 0.02 |

| Variant | self-cleavage |
| --- | --- |
| A33G U43C A90U | 1.38 |
| A30U U87C A91G A111U | 0.03 |
| A30U U37C A55G | 1.01 |
| C34U A86G U122A | 1.27 |
| A36G A91G U120C | 0.45 |
| C35U A51U G58A | 0.75 |
| A30U A56G A69C U72A | 0.28 |
| G31U A55G A94G | 1.46 |
| A33U A69C U108A U122C | 0.02 |
| C35U U70C U108C A116U U130C | 0 |
| A33G A64G A68G | 0.89 |
| C35G A63G A89G | 0.87 |
| A33G A67G U87G U132C | 0.16 |
| A30U A62U A96U A117G | 1.41 |
| A30U U57C A62G A66G U72G | 0.17 |
| A33U A36G C112U A129U | 0 |
| A33U A47U U87C U108C U130C | 0 |
| A33G A62G A111G | 0.02 |
| A33G U38C A82U | 0.35 |
| A33G U70A U132C | 0.24 |
| C32U A62U U122A | 1.88 |

| Variant | self-cleavage |
| --- | --- |
| C32U A62U U122C | 1.49 |
| A33G A78C A98G U102C G136C | 0.21 |
| A33G U103A A111G | 0.02 |
| A33G A82G A94U A117U | 0.26 |
| A33G A36U U38C A54G A56G A60C A135G | 0.96 |
| G31C A60G U87C G115A A118G | 0.01 |
| G31U A92G U108C U132A | 0.02 |
| A36G A52G U70C | 1.06 |
| A33G A95U A98G | 0.4 |
| C34U U102C A117G | 2.74 |
| C34G U37A A51U A116G | 0.65 |
| A33G G65U A95G | 0.73 |
| A33G A51U A68G U87C A90G C112U G115A | 0 |
| A33G A78U U122A | 0.06 |
| G31U A36G A66G A94G A117G | 1.82 |
| A33G U72A A82G A90G | 0.1 |
| A33G U43C U70A U87A U100A | 0.05 |
| A33G A91G U132C | 0.7 |
| C32A A118G U124C | 0.33 |
| A33G A54U U124A | 0.55 |
| A33U A118U U139C | 0.73 |

| Variant | self-cleavage |
| --- | --- |
| A33G A36G U43G A52G | 0.97 |
| A30U A125C A126G | 0.81 |
| A33G A91G A140G | 0.51 |
| A33G A36U U108A U131C | 0.01 |
| C34A A52G A64G | 0.7 |
| A36C U57C A92G | 0.63 |
| C32U A62G A90U A129G | 1.72 |
| A33G A64G G74A A140C | 0.17 |
| A33G U72C A92U A111G C121U | 0 |
| A36C G104A A126G | 0 |
| A33G A111U A116G | 0.03 |
| A36G A69G U127C A129G U139C | 0.34 |
| A33G A68G A82U | 0.09 |
| A36G A55G A92G A126G | 0.74 |
| A33G U37G A90G | 0.41 |
| A36G A60G A114G U130A | 0.07 |
| A30U A55G U103C C121G | 0.49 |
| C34U U49A U87C | 1.74 |
| A33G U49C U133C | 1.2 |
| C34U A56G G79A A135G | 0.21 |
| C35U U57A U103C A110G | 0.05 |
